Measured values taken from the antibiotic and cytotoxicity screens of Wong et al. (2023).
The list shows a part of the results.

Legend:
[1] = system: HSkMC (human skeletal muscle cells); assay: cytotoxicity call (relative viability < 0.9); settings: 10 µM
[2] = system: HepG2; assay: cytotoxicity call (relative viability < 0.9); settings: 10 µM
[3] = system: S. aureus RN4220; assay: growth inhibition call (relative growth <= 0.2); settings: 50 µM

C[C@H]1CN([C@@H](C)CO)C(=O)c2cc(NS(=O)(=O)c3ccc(Cl)cc3)ccc2O[C@@H]1CN(C)C(=O)Nc1cccc2ccccc12
cytotoxicity call [1]: inactive
cytotoxicity call [2]: inactive
growth inhibition call [3]: inactive

C[C@H](CO)N1C[C@H](C)[C@@H](CN(C)C(=O)Nc2ccc(-c3ccccc3)cc2)OCc2ccccc2-c2ccccc2C1=O
cytotoxicity call [1]: inactive
cytotoxicity call [2]: inactive
growth inhibition call [3]: inactive

C[C@@H]1CN([C@@H](C)CO)C(=O)CCCn2cc(nn2)CO[C@@H]1CN(C)C(=O)c1cc(-c2ccccc2)on1
cytotoxicity call [1]: inactive
cytotoxicity call [2]: inactive
growth inhibition call [3]: inactive

CCN(CC)C(=O)C(C#N)=Cc1cc(O)c(O)c([N+](=O)[O-])c1
cytotoxicity call [1]: inactive
cytotoxicity call [2]: inactive
growth inhibition call [3]: inactive

Cc1cccc(S(=O)(=O)N2C[C@H](O)COC[C@H]3O[C@@H](CC(=O)N4CCN(C)CC4)CC[C@@H]32)c1
cytotoxicity call [1]: inactive
cytotoxicity call [2]: inactive
growth inhibition call [3]: inactive

C[C@@H]1CCCCO[C@H](CN(C)Cc2ccc(C(=O)O)cc2)[C@@H](C)CN([C@H](C)CO)C(=O)c2cc(NS(=O)(=O)c3cccs3)ccc2O1
cytotoxicity call [1]: inactive
cytotoxicity call [2]: inactive
growth inhibition call [3]: inactive

Cc1noc(C)c1NC(=O)N(C)C[C@H]1OCCCC[C@@H](C)Oc2ccc(NS(=O)(=O)c3ccccc3)cc2C(=O)N([C@@H](C)CO)C[C@H]1C
cytotoxicity call [1]: inactive
cytotoxicity call [2]: inactive
growth inhibition call [3]: inactive

C[C@@H]1CN([C@H](C)CO)C(=O)c2cc(NC(=O)c3ccccc3)ccc2O[C@@H](C)CCCCO[C@H]1CN(C)C(=O)C1CCCCC1
cytotoxicity call [1]: inactive
cytotoxicity call [2]: inactive
growth inhibition call [3]: inactive

C[C@@H]1CN([C@@H](C)CO)C(=O)c2cc(NS(C)(=O)=O)ccc2O[C@@H]1CN(C)S(=O)(=O)c1ccccc1
cytotoxicity call [1]: inactive
cytotoxicity call [2]: inactive
growth inhibition call [3]: inactive

Cc1noc(C)c1S(=O)(=O)Nc1ccc2c(c1)C(=O)N([C@@H](C)CO)C[C@H](C)[C@@H](CN(C)S(=O)(=O)c1cccs1)O2
cytotoxicity call [1]: inactive
cytotoxicity call [2]: inactive
growth inhibition call [3]: inactive

C[C@H]1CN([C@@H](C)CO)C(=O)c2cc(NS(C)(=O)=O)ccc2O[C@@H]1CN(C)Cc1ccc(C(F)(F)F)cc1
cytotoxicity call [1]: inactive
cytotoxicity call [2]: inactive
growth inhibition call [3]: inactive

C[C@H]1CN([C@@H](C)CO)S(=O)(=O)c2ccc(-c3cccc(C#N)c3)cc2O[C@H]1CN(C)C(=O)c1cccnc1
cytotoxicity call [1]: inactive
cytotoxicity call [2]: inactive
growth inhibition call [3]: inactive

CO[C@H]1CN(C)C(=O)c2cc(NS(=O)(=O)c3ccccc3C)ccc2OC[C@H](C)N(S(C)(=O)=O)C[C@H]1C
cytotoxicity call [1]: inactive
cytotoxicity call [2]: inactive
growth inhibition call [3]: inactive

C[C@H]1CN([C@@H](C)CO)S(=O)(=O)c2ccc(Br)cc2O[C@H]1CN(C)C(=O)Cc1ccccn1
cytotoxicity call [1]: inactive
cytotoxicity call [2]: inactive
growth inhibition call [3]: inactive

CN1C(=O)c2cc(NC(=O)C3CCOCC3)ccc2OC[C@H]2O[C@H](CC(=O)NCCc3ccncc3)CC[C@@H]21
cytotoxicity call [1]: inactive
cytotoxicity call [2]: inactive
growth inhibition call [3]: inactive

CC(C)NC(=O)Nc1ccc2c(c1)C(=O)N([C@@H](C)CO)C[C@H](C)[C@@H](CN(C)C(=O)C1CCCCC1)OCCCC[C@H](C)O2
cytotoxicity call [1]: inactive
cytotoxicity call [2]: inactive
growth inhibition call [3]: inactive

N#C[C@@H]1N[C@@H](CO)[C@@H]1c1ccccc1
cytotoxicity call [1]: inactive
cytotoxicity call [2]: inactive
growth inhibition call [3]: inactive

Cn1nnnc1SCC(=O)NC(C)(C)C
cytotoxicity call [1]: inactive
cytotoxicity call [2]: inactive
growth inhibition call [3]: inactive

O=C(N[C@H]1C=C[C@H](CC(=O)N2CCOCC2)O[C@H]1CO)c1ccccn1
cytotoxicity call [1]: inactive
cytotoxicity call [2]: inactive
growth inhibition call [3]: inactive

CC(C)NC(=O)Nc1ccc2c(c1)C(=O)N([C@H](C)CO)C[C@H](C)[C@H](CN(C)S(C)(=O)=O)OCCCC[C@H](C)O2
cytotoxicity call [1]: inactive
cytotoxicity call [2]: inactive
growth inhibition call [3]: inactive

Cc1cncc2cccc(S(=O)(=O)N[C@H]3CN[C@@H](COC(=O)NCCOCCOCCN)C3)c12
cytotoxicity call [1]: inactive
cytotoxicity call [2]: inactive
growth inhibition call [3]: inactive

C[C@@H]1CN([C@H](C)CO)C(=O)c2cc(C#CCN(C)C)cnc2O[C@H]1CN(C)Cc1ccc(C(=O)O)cc1
cytotoxicity call [1]: inactive
cytotoxicity call [2]: inactive
growth inhibition call [3]: inactive

COc1ccc(NC(=O)Nc2cccc3c2O[C@H](CN(C)Cc2ccc(C(=O)Nc4ccccc4N)cc2)[C@H](C)CN([C@H](C)CO)C3=O)cc1
cytotoxicity call [1]: inactive
cytotoxicity call [2]: inactive
growth inhibition call [3]: inactive

CCOC(=O)COc1ccc(-c2nn[nH]n2)cc1
cytotoxicity call [1]: inactive
cytotoxicity call [2]: inactive
growth inhibition call [3]: inactive

Cc1ccc(S(=O)(=O)Nc2cccc3c2O[C@@H](CN(C)Cc2ccc(-c4ccccc4)cc2)[C@@H](C)CN([C@@H](C)CO)C3=O)cc1
cytotoxicity call [1]: inactive
cytotoxicity call [2]: inactive
growth inhibition call [3]: inactive

C[C@@H]1CCCCO[C@@H](CN(C)C(=O)Nc2cccc3ccccc23)[C@@H](C)CN([C@H](C)CO)C(=O)c2cc(NC(=O)c3ccccc3)ccc2O1
cytotoxicity call [1]: inactive
cytotoxicity call [2]: inactive
growth inhibition call [3]: inactive

C[C@H]1CCCCO[C@@H](CN(C)C(=O)Nc2ccc(F)cc2)[C@@H](C)CN([C@@H](C)CO)C(=O)c2cc(NC(=O)c3ccccc3)ccc2O1
cytotoxicity call [1]: inactive
cytotoxicity call [2]: inactive
growth inhibition call [3]: inactive

CCN(CC)CCCC(C)Nc1ccnc2cc(Cl)ccc12.O=P(O)(O)O.O=P(O)(O)O (stereo unspecified)
cytotoxicity call [1]: inactive
cytotoxicity call [2]: active
growth inhibition call [3]: inactive

O=NN(CCCl)C(=O)NC1CCCCC1
cytotoxicity call [1]: inactive
cytotoxicity call [2]: inactive
growth inhibition call [3]: inactive

C[C@H](CO)N1C[C@H](C)[C@H](CN(C)C(=O)C2CC2)OCc2cn(nn2)CCCC1=O
cytotoxicity call [1]: inactive
cytotoxicity call [2]: inactive
growth inhibition call [3]: inactive

Cc1noc(C)c1NC(=O)Nc1ccc2c(c1)C(=O)N([C@H](C)CO)C[C@@H](C)[C@@H](CN(C)S(=O)(=O)c1cccs1)OCCCC[C@@H](C)O2
cytotoxicity call [1]: inactive
cytotoxicity call [2]: inactive
growth inhibition call [3]: inactive

NC(=O)c1cc[n+](CC2=C(C(=O)O)N3C(=O)[C@@H](NC(=O)Cc4cccs4)[C@H]3SC2)cc1
cytotoxicity call [1]: inactive
cytotoxicity call [2]: inactive
growth inhibition call [3]: active

O=C(O)C1CC(C2CCCCN2)CN2CCCCC12 (stereo unspecified)
cytotoxicity call [1]: inactive
cytotoxicity call [2]: inactive
growth inhibition call [3]: inactive

CC(C)NC(=O)N(C)C[C@@H]1OCCCC[C@@H](C)Oc2ccc(NC(=O)Nc3ccc(F)cc3)cc2C(=O)N([C@@H](C)CO)C[C@H]1C
cytotoxicity call [1]: inactive
cytotoxicity call [2]: inactive
growth inhibition call [3]: inactive

C[C@H](CO)N1C[C@H](C)[C@@H](CN(C)C(=O)Nc2ccc(F)cc2)Oc2cc(C#CC3(O)CCCC3)ccc2S1(=O)=O
cytotoxicity call [1]: inactive
cytotoxicity call [2]: inactive
growth inhibition call [3]: inactive

C[C@@H]1CN([C@@H](C)CO)C(=O)c2cc(NC(=O)c3ccccc3)ccc2O[C@@H](C)CCCCO[C@H]1CN(C)C(=O)Nc1ccc2c(c1)OCO2
cytotoxicity call [1]: inactive
cytotoxicity call [2]: inactive
growth inhibition call [3]: inactive

COCC(=O)N(C)C[C@H]1Oc2cc(C#CCN(C)C)ccc2S(=O)(=O)N([C@H](C)CO)C[C@@H]1C
cytotoxicity call [1]: inactive
cytotoxicity call [2]: inactive
growth inhibition call [3]: inactive

Cc1cc([N+](=O)[O-])nn1CC(=O)N1CCOCC1
cytotoxicity call [1]: inactive
cytotoxicity call [2]: inactive
growth inhibition call [3]: inactive

C[C@H]1CN([C@@H](C)CO)C(=O)c2cc(NC(=O)NC3CCCCC3)ccc2O[C@@H]1CN(C)S(C)(=O)=O
cytotoxicity call [1]: inactive
cytotoxicity call [2]: inactive
growth inhibition call [3]: inactive

C[C@H](CO)N1C[C@H](C)[C@H](CN(C)S(=O)(=O)c2cccs2)OCCCC[C@H](C)Oc2ccc(NC(=O)Nc3ccc(C(F)(F)F)cc3)cc2C1=O
cytotoxicity call [1]: inactive
cytotoxicity call [2]: inactive
growth inhibition call [3]: inactive

COCC(=O)N1CC(=O)N2[C@H](CO)[C@H](c3ccc(C#Cc4cccnc4)cc3)[C@@H]2C1
cytotoxicity call [1]: inactive
cytotoxicity call [2]: inactive
growth inhibition call [3]: inactive

C[C@@H]1CN([C@H](C)CO)C(=O)c2cc(NC(=O)Nc3cccc4ccccc34)ccc2O[C@@H](C)CCCCO[C@H]1CN(C)Cc1ccccc1
cytotoxicity call [1]: inactive
cytotoxicity call [2]: active
growth inhibition call [3]: inactive

C[C@H]1CN([C@@H](C)CO)C(=O)c2cc(C#CC3CCCCC3)cnc2O[C@H]1CN(C)C(=O)c1ccncc1
cytotoxicity call [1]: inactive
cytotoxicity call [2]: inactive
growth inhibition call [3]: inactive

COc1ccc(S(=O)(=O)Nc2cccc3c2O[C@H](CN(C)C(=O)NC(C)C)[C@H](C)CN([C@H](C)CO)C3=O)cc1
cytotoxicity call [1]: inactive
cytotoxicity call [2]: inactive
growth inhibition call [3]: inactive

COc1cccc(S(=O)(=O)N(C)C[C@H]2Oc3cc(C#CCC(C)C)ccc3S(=O)(=O)N([C@@H](C)CO)C[C@H]2C)c1
cytotoxicity call [1]: inactive
cytotoxicity call [2]: inactive
growth inhibition call [3]: inactive

COc1ccc(NC(=O)Nc2ccc3c(c2)C(=O)N([C@@H](C)CO)C[C@H](C)[C@H](CN(C)Cc2ccc(Cl)c(Cl)c2)O3)cc1
cytotoxicity call [1]: active
cytotoxicity call [2]: active
growth inhibition call [3]: inactive

CCS(=O)(=O)N1C[C@]2(C1)CN([C@H](CO)c1c2c2ccc(cc2n1C)OC)C(=O)Nc1c(noc1C)C
cytotoxicity call [1]: inactive
cytotoxicity call [2]: inactive
growth inhibition call [3]: inactive

CCCn1cnnc1[C@@H](C)N
cytotoxicity call [1]: inactive
cytotoxicity call [2]: inactive
growth inhibition call [3]: inactive

C[C@@H]1CCCCO[C@H](CN(C)Cc2ccc3c(c2)OCO3)[C@@H](C)CN([C@@H](C)CO)C(=O)c2cc(NC(=O)NC3CCCCC3)ccc2O1
cytotoxicity call [1]: inactive
cytotoxicity call [2]: active
growth inhibition call [3]: inactive

IC(I)I
cytotoxicity call [1]: inactive
cytotoxicity call [2]: inactive
growth inhibition call [3]: inactive

COc1ccc(NC(=O)N(C)C[C@@H]2Oc3ccc(NC(=O)Nc4cccc5ccccc45)cc3CC(=O)N([C@@H](C)CO)C[C@@H]2C)cc1
cytotoxicity call [1]: inactive
cytotoxicity call [2]: inactive
growth inhibition call [3]: inactive

CO[C@H]1CN(C)C(=O)c2cc(NS(=O)(=O)CC(F)(F)F)ccc2OC[C@H](C)N(Cc2ccccn2)C[C@H]1C
cytotoxicity call [1]: inactive
cytotoxicity call [2]: inactive
growth inhibition call [3]: inactive

COc1ccc(CN(C)C[C@@H]2Oc3ccc(NC(=O)Cn4cnnn4)cc3C(=O)N([C@@H](C)CO)C[C@H]2C)cc1
cytotoxicity call [1]: inactive
cytotoxicity call [2]: inactive
growth inhibition call [3]: inactive

C[C@H]1CN([C@@H](C)CO)C(=O)c2cccc(NC(=O)Nc3ccc4c(c3)OCO4)c2O[C@H]1CN(C)Cc1ccc(-c2ccccc2)cc1
cytotoxicity call [1]: inactive
cytotoxicity call [2]: inactive
growth inhibition call [3]: inactive

CCCCCCCC/C=C\C/C=C\C/C=C\CCCC(=O)O
cytotoxicity call [1]: inactive
cytotoxicity call [2]: inactive
growth inhibition call [3]: inactive

Cc1ccc(S(=O)(=O)N(C)C[C@H]2Oc3ccc(NS(=O)(=O)c4ccc(F)cc4)cc3C(=O)N([C@H](C)CO)C[C@H]2C)cc1
cytotoxicity call [1]: inactive
cytotoxicity call [2]: inactive
growth inhibition call [3]: inactive

C[C@H](CO)N1C[C@H](C)[C@H](CN(C)Cc2ccc(C(=O)Nc3ccccc3N)cc2)Oc2ccc(NC(=O)Nc3ccc4c(c3)OCO4)cc2C1=O
cytotoxicity call [1]: inactive
cytotoxicity call [2]: inactive
growth inhibition call [3]: inactive
